Our source for the binding signal values is PMC9911399, “Two distinct binding modes provide the RNA-binding protein RbFox with extraordinary sequence specificity”.

The chains are these.
B1: AUGCCAC (DNA:RNA)
RNA: GGGAGACCGGAAUUCAGAUUGUCCAUGCCACUUAAAUCCCGUCGUAGCCACCA
DNA 1: CAATCTGAATTCCGGTCTCCC
DNA 2: TGGTGGCTACGACGGGATT
B2: AGUUUUG (DNA:RNA)
RNA: B1 RNA with U26G, G27U, C28U, C29U, A30U, C31G
DNA 1: CAATCTGAATTCCGGTCTCCC
DNA 2: TGGTGGCTACGACGGGATT
B3: AAGUGUU (DNA:RNA)
RNA: B1 RNA with U26A, C28U, C29G, A30U, C31U
DNA 1: CAATCTGAATTCCGGTCTCCC
DNA 2: TGGTGGCTACGACGGGATT
B4: CGUUGGC (DNA:RNA)
RNA: B1 RNA with A25C, U26G, G27U, C28U, C29G, A30G
DNA 1: CAATCTGAATTCCGGTCTCCC
DNA 2: TGGTGGCTACGACGGGATT
B5: CAGACAG (DNA:RNA)
RNA: B1 RNA with A25C, U26A, C28A, C31G
DNA 1: CAATCTGAATTCCGGTCTCCC
DNA 2: TGGTGGCTACGACGGGATT
B6: UUUAAUC (DNA:RNA)
RNA: B1 RNA with A25U, G27U, C28A, C29A, A30U
DNA 1: CAATCTGAATTCCGGTCTCCC
DNA 2: TGGTGGCTACGACGGGATT
B7: CGGGUCU (DNA:RNA)
RNA: B1 RNA with A25C, U26G, C28G, C29U, A30C, C31U
DNA 1: CAATCTGAATTCCGGTCTCCC
DNA 2: TGGTGGCTACGACGGGATT
B8: GGAUAUA (DNA:RNA)
RNA: GGGAGACCGGAAUUCAGAUUGUCCGGAUAUAUUAAAUCCCGUCGUAGCCACCA
DNA 1: CAATCTGAATTCCGGTCTCCC
DNA 2: TGGTGGCTACGACGGGATT
B9: CGGAAGA (DNA:RNA)
RNA: B8 RNA with G25C, A27G, U28A, U30G
DNA 1: CAATCTGAATTCCGGTCTCCC
DNA 2: TGGTGGCTACGACGGGATT
B10: AGUUUUA (DNA:RNA)
RNA: B8 RNA with G25A, A27U, A29U
DNA 1: CAATCTGAATTCCGGTCTCCC
DNA 2: TGGTGGCTACGACGGGATT
B11: UCUUAGU (DNA:RNA)
RNA: B8 RNA with G25U, G26C, A27U, U30G, A31U
DNA 1: CAATCTGAATTCCGGTCTCCC
DNA 2: TGGTGGCTACGACGGGATT
B12: GGCAUUA (DNA:RNA)
RNA: B8 RNA with A27C, U28A, A29U
DNA 1: CAATCTGAATTCCGGTCTCCC
DNA 2: TGGTGGCTACGACGGGATT
B13: UCCCGAG (DNA:RNA)
RNA: B1 RNA with A25U, U26C, G27C, C29G, C31G
DNA 1: CAATCTGAATTCCGGTCTCCC
DNA 2: TGGTGGCTACGACGGGATT
B14: AAUGUGA (DNA:RNA)
RNA: B1 RNA with U26A, G27U, C28G, C29U, A30G, C31A
DNA 1: CAATCTGAATTCCGGTCTCCC
DNA 2: TGGTGGCTACGACGGGATT
B15: GUUCUCC (DNA:RNA)
RNA: B1 RNA with A25G, G27U, C29U, A30C
DNA 1: CAATCTGAATTCCGGTCTCCC
DNA 2: TGGTGGCTACGACGGGATT
B16: GGAAUAG (DNA:RNA)
RNA: B8 RNA with U28A, A29U, U30A, A31G
DNA 1: CAATCTGAATTCCGGTCTCCC
DNA 2: TGGTGGCTACGACGGGATT
B17: UUUCGAG (DNA:RNA)
RNA: B1 RNA with A25U, G27U, C29G, C31G
DNA 1: CAATCTGAATTCCGGTCTCCC
DNA 2: TGGTGGCTACGACGGGATT
B18: GUAGACA (DNA:RNA)
RNA: B8 RNA with G26U, U28G, U30C
DNA 1: CAATCTGAATTCCGGTCTCCC
DNA 2: TGGTGGCTACGACGGGATT
B19: GUUACGC (DNA:RNA)
RNA: B1 RNA with A25G, G27U, C28A, A30G
DNA 1: CAATCTGAATTCCGGTCTCCC
DNA 2: TGGTGGCTACGACGGGATT
B20: CGUACUA (DNA:RNA)
RNA: B8 RNA with G25C, A27U, U28A, A29C
DNA 1: CAATCTGAATTCCGGTCTCCC
DNA 2: TGGTGGCTACGACGGGATT

Changes are numbered by the printed parent chain; changes in the protein carry UniProt numbers. This is one part of the list.

This assay concerns the target T1, RBFOX1 RRM RbFoxmut (Fox-RRM*) (Homo sapiens, UniProt Q9NWB1 109-208, R118D;E147R;N151S;E152T).
T1 sequence: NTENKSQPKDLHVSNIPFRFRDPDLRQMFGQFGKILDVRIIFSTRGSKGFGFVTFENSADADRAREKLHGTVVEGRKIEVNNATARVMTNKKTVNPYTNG
In words: EMSA; HiTS-Eq, 1 nM pool, 10 min; buffer printed only for the single-RNA assays: 10 mM Tris pH 7.5, 150 mM NaCl, 3.4 mM EDTA, 0.001% NP-40, 30 C. The following applies: tags: His6 N-terminal (pET28a); label: 5' 32P. Put shortly: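 A pool of RNA with 7 randomized nucleotides, 5′-radiolabelled and with DNA-annealed flanks, was equilibrated at 1 nM for 10 min in 50 µL with purified RbFox RRM, wild type or mutant, across increasing protein concentrations. Free RNA was separated by 8% native PAGE, excised, reverse-transcribed, barcoded by PCR and sequenced. Relative association constants were obtained from read-count changes of each RNA species versus the control reaction and normalised to the cognate motif.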
A general note: A gel shift assay detects complexes by their altered migration in electrophoresis.
On to B1, for which the binding signal was 0.11 KA relative to UGCAUGU.
Take B2: the binding signal is 0.137 KA relative to UGCAUGU.
In the case of B3, the binding signal was 0.117 KA relative to UGCAUGU.
The result for B4 reads 0.124 KA relative to UGCAUGU; that for B5, 0.0536 KA relative to UGCAUGU; that for B6, 0.0571 KA relative to UGCAUGU.
Turning to B7, the binding signal was 0.0984 KA relative to UGCAUGU.
Take B8: the binding signal is 0.113 KA relative to UGCAUGU.
In the case of B9 it was 0.0866 KA relative to UGCAUGU; in that of B10, 0.101 KA relative to UGCAUGU.
For B11, the binding signal was 0.138 KA relative to UGCAUGU.
Consider B12, for which the binding signal is 0.121 KA relative to UGCAUGU.
In the case of B13 it was 0.135 KA relative to UGCAUGU; in that of B14, 0.0495 KA relative to UGCAUGU.
With B15, the binding signal was 0.0692 KA relative to UGCAUGU.
For B16, the binding signal was 0.133 KA relative to UGCAUGU.
Consider B17, for which the binding signal was 0.107 KA relative to UGCAUGU.
On to B18, for which the binding signal is 0.0639 KA relative to UGCAUGU.
In the case of B19 it was 0.126 KA relative to UGCAUGU.
In the case of B20 it was 0.0884 KA relative to UGCAUGU.
